Data on 45 molecules can be found in article PMC4336329 (PLoS ONE, 2015).

SMILES strings stand for the structures. The campaign covered roughly 310,000 compounds. About 14,000 (4.5%) showed an effect of 50% or more. Effects have a minus sign here. Some of the results follow.
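Further: peak tail current of the secondary pulse compared with the same well before compound.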

Chain of human ether-à-go-go-related gene (hERG) potassium channel (Q12809 whole entry, looked up): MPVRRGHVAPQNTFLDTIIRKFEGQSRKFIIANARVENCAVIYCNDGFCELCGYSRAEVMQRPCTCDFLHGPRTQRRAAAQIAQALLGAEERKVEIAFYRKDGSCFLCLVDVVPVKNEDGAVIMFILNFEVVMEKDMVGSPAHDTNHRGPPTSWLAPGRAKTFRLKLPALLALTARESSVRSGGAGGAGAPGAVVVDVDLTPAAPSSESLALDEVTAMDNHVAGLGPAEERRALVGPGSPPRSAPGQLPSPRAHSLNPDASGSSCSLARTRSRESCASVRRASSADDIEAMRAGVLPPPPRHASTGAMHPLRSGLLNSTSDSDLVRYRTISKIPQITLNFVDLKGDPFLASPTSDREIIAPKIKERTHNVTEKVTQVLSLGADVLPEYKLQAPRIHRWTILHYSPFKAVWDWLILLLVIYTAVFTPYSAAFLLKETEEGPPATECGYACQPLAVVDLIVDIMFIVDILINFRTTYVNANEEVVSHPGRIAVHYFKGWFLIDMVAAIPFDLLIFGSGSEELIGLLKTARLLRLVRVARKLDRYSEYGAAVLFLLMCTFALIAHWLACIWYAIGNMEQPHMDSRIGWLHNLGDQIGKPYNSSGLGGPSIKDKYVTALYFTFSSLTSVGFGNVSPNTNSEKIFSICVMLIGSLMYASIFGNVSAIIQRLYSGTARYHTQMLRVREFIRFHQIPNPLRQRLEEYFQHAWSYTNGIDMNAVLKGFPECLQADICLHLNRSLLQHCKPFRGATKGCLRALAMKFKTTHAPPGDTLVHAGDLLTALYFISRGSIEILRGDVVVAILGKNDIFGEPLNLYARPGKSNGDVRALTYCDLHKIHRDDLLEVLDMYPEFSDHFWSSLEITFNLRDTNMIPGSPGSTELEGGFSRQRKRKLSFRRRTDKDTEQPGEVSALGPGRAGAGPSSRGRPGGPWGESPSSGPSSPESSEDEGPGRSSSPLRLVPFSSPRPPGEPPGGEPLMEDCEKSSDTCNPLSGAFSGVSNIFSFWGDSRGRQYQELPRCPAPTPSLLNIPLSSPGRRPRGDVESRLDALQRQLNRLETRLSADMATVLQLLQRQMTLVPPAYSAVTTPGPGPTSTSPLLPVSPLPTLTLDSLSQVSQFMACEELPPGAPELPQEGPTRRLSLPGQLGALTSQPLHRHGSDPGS

This experiment concerns the target human ether-à-go-go-related gene (hERG) potassium channel (human, UniProt Q12809). The experiment in a line: primary screen, population patch clamp on CHO cells stably expressing hERG.
For `C/C(O)=C(\C#N)c1nnc2n1CCCCC2`, the “hERG current change (%, negative = inhibition) at 10uM” value is recorded as 3.51%.

Take `COc1ccc(CN2CCNC(=O)C2CC(=O)NCCc2nc(C)c(C)s2)cc1C` (stereo not drawn): the “hERG current change (%, negative = inhibition) at 10uM” value is 1.75%.

On to `O=C(c1ccc(NC(=S)Nc2ccc(F)cc2F)cc1)N1CCOCC1`, for which the “hERG current change (%, negative = inhibition) at 10uM” value was found to be 6.43%.

Take `O=C(CSc1n[nH]c(=O)n1Cc1ccco1)c1ccc(F)cc1`: the “hERG current change (%, negative = inhibition) at 10uM” value was 1.67%.

As for `CC1Sc2ccc(S(=O)(=O)N3CCN(c4cccc(Cl)c4)CC3)cc2NC1=O` (stereo not drawn), the “hERG current change (%, negative = inhibition) at 10uM” value was 9.32%.

With `Cc1ccc(C)c(OCC(O)CN2CCc3ccccc3C2)c1C.Cl` (stereo not drawn), the “hERG current change (%, negative = inhibition) at 10uM” value is reported as -65.3%.

Take `c1coc(CNc2c3c(nc4ncnn24)CCC3)c1`: the “hERG current change (%, negative = inhibition) at 10uM” value was -29.6%.

As to `Cc1ccc(OCC(=O)Nc2ccc(C(N)=O)cc2)cc1`, the “hERG current change (%, negative = inhibition) at 10uM” value is given as 16.5%.

For the molecule `CC(=O)N/N=C(\C)c1cccc(C(F)(F)F)c1`, the “hERG current change (%, negative = inhibition) at 10uM” value is listed as 9.13%.

As for `COc1ccc(OCCOC(=O)Nc2ccccc2)cc1`, the “hERG current change (%, negative = inhibition) at 10uM” value is -2.72%.

With `O=C(CN1CCCCC1)Nc1ccc(N2CCCCCC2)cc1.O=C(O)C(=O)O`, the “hERG current change (%, negative = inhibition) at 10uM” value is -88.7%.

For the molecule `O=C(O)C[C@H]1c2cc(F)ccc2S(=O)(=O)N1Cc1ccccc1`, the “hERG current change (%, negative = inhibition) at 10uM” value came out at 1.81%.

On to `O=c1[nH]c(C2CC2)nc2sc3c(c12)CCCC3`, for which the “hERG current change (%, negative = inhibition) at 10uM” value is 15.8%.

As to `O=C(N/N=C/C=C/c1cccc([N+](=O)[O-])c1)c1ccncc1`, the “hERG current change (%, negative = inhibition) at 10uM” value was -24%.

As for `Cc1cc(C)n(CC(=O)NNC(=O)CCCOc2ccc(Cl)cc2C)n1`, the “hERG current change (%, negative = inhibition) at 10uM” value is 8.14%.

As to `N#C/C(=C\c1c(N2CCC(C(N)=O)CC2)nc2ccccn2c1=O)S(=O)(=O)c1ccccc1`, the “hERG current change (%, negative = inhibition) at 10uM” value was -4.45%.

For the molecule `CCN(CC)c1cc(C)c2cc(NC(=O)c3cccs3)ccc2n1`, the “hERG current change (%, negative = inhibition) at 10uM” value is listed as -72.2%.

Regarding `COc1ccc(OC)c(S(=O)(=O)N2CCCC(C(=O)N3CCC(C(N)=O)CC3)C2)c1` (stereo not drawn), the “hERG current change (%, negative = inhibition) at 10uM” value is given as -1.95%.

In the case of `NC(=O)N/N=C\c1cccs1`, the “hERG current change (%, negative = inhibition) at 10uM” value is 7.36%.

Take `COc1ccc(-n2nc(C(=O)NCC(=O)N3CCN(Cc4ccccc4)CC3)c3ccccc3c2=O)cc1OC`: the “hERG current change (%, negative = inhibition) at 10uM” value worked out at 13.9%.

Consider `CS(=O)(=O)N1CCC(C(=O)Nc2ccccc2F)CC1`, for which the “hERG current change (%, negative = inhibition) at 10uM” value was determined as 10.3%.

On to `CC(C(=O)NC(=O)NC1CCCCC1)N1CCN(C(c2ccccc2)c2ccccc2)CC1` (stereo not drawn), for which the “hERG current change (%, negative = inhibition) at 10uM” value is recorded as -2.11%.

As to `NNC(=O)c1ccccc1OCc1ccccc1`, the “hERG current change (%, negative = inhibition) at 10uM” value is listed as -7.5%.

As for `Cc1ccccc1-n1c(SCC(=O)N2CCOCC2)nc(O)c(Cc2ccccc2)c1=O`, the “hERG current change (%, negative = inhibition) at 10uM” value was found to be 12.9%.

With `O=C(/C=C/c1cccc([N+](=O)[O-])c1)NCCc1ccc(F)cc1`, the “hERG current change (%, negative = inhibition) at 10uM” value is -21.8%.

As to `Cc1c(NS(=O)(=O)c2ccc(Br)s2)c(=O)n(-c2ccccc2)n1C`, the “hERG current change (%, negative = inhibition) at 10uM” value is given as -1.13%.

With `COc1ccc2nc(SCC(=O)Nc3ccc(S(=O)(=O)Nc4nccc(C)n4)cc3)[nH]c2c1`, the “hERG current change (%, negative = inhibition) at 10uM” value is on record as -1%.

On to `Cc1cc(C(=O)N2CCN(c3ccc([N+](=O)[O-])cc3)CC2)n[nH]1`, for which the “hERG current change (%, negative = inhibition) at 10uM” value is given as -78.5%.

For `CCCCn1c(NC(=O)c2ccco2)c(C(=O)OCC)c2nc3ccccc3nc21`, the “hERG current change (%, negative = inhibition) at 10uM” value is on record as -42.1%.

As for `CCCCn1c(CCNC(=O)c2ccco2)nc2ccccc21`, the “hERG current change (%, negative = inhibition) at 10uM” value is reported as -22.9%.

For `CCC(C(=O)OCc1csc(CC(=O)Nc2ccccc2C)n1)c1ccccc1` (stereo not drawn), the “hERG current change (%, negative = inhibition) at 10uM” value is given as -6.51%.

In the case of `c1nc(N2CCCC2)c2[nH]cnc2n1`, the “hERG current change (%, negative = inhibition) at 10uM” value is recorded as -3.15%.

With `COc1ccc(NC(=O)c2ccc(C#CC(C)(C)O)cc2)cc1`, the “hERG current change (%, negative = inhibition) at 10uM” value is -5.36%.

As to `COc1ccc(/C=C/C(=O)OCC(=O)NCc2cccs2)cc1OC`, the “hERG current change (%, negative = inhibition) at 10uM” value is on record as -12.4%.

As to `CCOC(=O)c1cc2sccc2n1CC(=O)N1CCCc2ccccc21`, the “hERG current change (%, negative = inhibition) at 10uM” value is recorded as -6.42%.

In the case of `COc1ccc2c(Cl)c(C(=O)NCCc3ccc(S(N)(=O)=O)cc3)sc2c1`, the “hERG current change (%, negative = inhibition) at 10uM” value is given as 13%.

For `CC(C)(C)c1ccc(C(=O)N2CCN(CCNC(=O)C(=O)Nc3ccc(F)cc3)CC2)cc1`, the “hERG current change (%, negative = inhibition) at 10uM” value is given as -52.5%.

For `Cc1oc2c(c1C(=O)NCc1cccnc1)C(=O)c1ccccc1C2=O`, the “hERG current change (%, negative = inhibition) at 10uM” value is reported as -47%.

Take `CNC(=O)CSc1nnc(-c2ccco2)n1-c1ccc(C)cc1`: the “hERG current change (%, negative = inhibition) at 10uM” value is on record as -49.5%.

`CC1CCN(C(=O)CN2c3cccc4cccc(c34)S2(=O)=O)CC1`: the “hERG current change (%, negative = inhibition) at 10uM” value is reported as -6.45%.

`CC(=O)c1ccc(NC(=O)C[n+]2ccccc2)cc1.[Cl-]`: the “hERG current change (%, negative = inhibition) at 10uM” value was determined as 1.92%.

`CC(=O)Nc1cccc(NC(=S)Nc2cccc(Cl)c2C)c1`: the “hERG current change (%, negative = inhibition) at 10uM” value stood at 1.46%.

In the case of `CN(Cc1c(F)cccc1Cl)C(=O)c1ccc(NC(=O)CC2SC(N3CCCC3)=NC2=O)cc1` (stereo not drawn), the “hERG current change (%, negative = inhibition) at 10uM” value was -18.7%.

Turning to `Cc1cc(Cl)c(S(=O)(=O)Nc2ccc3c(c2)OCO3)cc1OCC(N)=O`, the “hERG current change (%, negative = inhibition) at 10uM” value is -14.4%.

For the molecule `CC(C)(C)NCC(O)COc1c(F)cc(Br)cc1F.Cl` (stereo not drawn), the “hERG current change (%, negative = inhibition) at 10uM” value is reported as -7.38%.
